# This is one part of the list.
# T1: UNK ZnF1-3 (human, UniProt Q9C0B0 31-174)
# T1 sequence: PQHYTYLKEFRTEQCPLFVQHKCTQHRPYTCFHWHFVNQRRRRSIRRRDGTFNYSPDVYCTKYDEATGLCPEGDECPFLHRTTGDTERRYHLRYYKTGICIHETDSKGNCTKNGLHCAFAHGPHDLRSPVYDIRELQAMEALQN
# B1: 105898431_105898551_306_CDS_ENSMUSG00000049354_ENSMUST00000058438|mouse|control|control (ssRNA)
# RNA: GGGAGUUCUACAGUCCGACGAUCGCUGCCCAGCGCCAGGCGAAAGCGCUUGUCCGGCCGCACGCUCCAGUUCAUGGCGUACACAGUCCAGGGCGCUUCAUAUUUGUAGAUCUCCUUCCGUUUGCCGUGCAGGGACAUGGUGGCCAACAGAGGAUUGAGCAUCA
# B2: chr13:76077047:76077048:-_ENSMUSG00000021589_ENSMUST00000022078|mus_hu|FALSE|FALSE (ssRNA)
# RNA: GGGAGUUCUACAGUCCGACGAUCGAAUGAAAACUUGUCAUUAACGUUGUAUUUGAUCACAAUGAUGUCAGCGCCCCCAAUUAGAUUUCGAGAAGUGUACCAAUCACUGUCAAAUAUGUCCCAGACGGGACAGUCGUGGACCACCAACAGAGGAUUGAGCAUCA
# B3: 11577162_11577282_1827_3pUTR_ENSG00000205269_ENST00000379426|human|control|control (ssRNA)
# RNA: GGGAGUUCUACAGUCCGACGAUCUUGGAUUAUCCUUAACUUCAUAUUCUCUGCAAUGUCUCCUUUGAGUUAGCACAUUAUAAUUGUAUCUGGUGCCAAAAAAAAUCUCAUUAGGAGACCAGUUCAACCCUACUUCCUAUACUCCAACAGAGGAUUGAGCAUCA
# B4: chr12:114310842:114310843:+_ENSMUSG00000021143_ENSMUST00000084891|mus_mus|FALSE|FALSE (ssRNA)
# RNA: GGGAGUUCUACAGUCCGACGAUCUGUAAGGGAGGUGGCCUUUGUAGUCAGACCAGCAUGCUGGAGCCUUCACGGGCUACAAACAAAUCUCUCUCUCUCUCUCUCUCACACACACACACACACACACACACACACACACACACACAACAGAGGAUUGAGCAUCA
# B5: 53177821_53178182_337_CDS_ENSG00000100519_ENST00000606149|human|control|control (ssRNA)
# RNA: GGGAGUUCUACAGUCCGACGAUCAGGGUCCUCAUGAGACAUGUUAUAAACCAGUGGAUCCACCUCUCUCGGCAAAUAUCUCAUGAUAGUUAGUGUAGUCAUAUCCAAAGCAACUCUUGUUCCUGGCUUCAGCUUACUUUUGUCCAACAGAGGAUUGAGCAUCA
# B6: chrX:131284163:131284164:-_ENSMUSG00000050394_ENSMUST00000052431|mus_mus|motif|central (ssRNA)
# RNA: GGGAGUUCUACAGUCCGACGAUCGGGACUCCUGUUUCCAACCACUGAUAGGCUGGCCAGAUGUUUACUGAUAUUGGGGCGGAGGGAAAAGCCAGCAUUUAUGUUCUUCGUGAACCUUUUCUUUCUUUGAGUGGAAACACACUUCAACAGAGGAUUGAGCAUCA
# B7: chr4:82150701:82150702:-_ENSMUSG00000008575_ENSMUST00000064770|mus_mus|motif|central (ssRNA)
# RNA: GGGAGUUCUACAGUCCGACGAUCUAAAACGCACUUUCCCGGAGAUGCCCAAGAAAAUCUUCCAGAAGCAAGGAUUUCAUCGGUUCAUUUUACAGUCAUCUGAGCCCAGCGAUGCGAUCAAUCAGGACGGGGCACUGCGCCGGUCAACAGAGGAUUGAGCAUCA
# B8: chr18:31598358:31598359:-_ENSMUSG00000024261_ENSMUST00000025110|mus_mus|motif|central (ssRNA)
# RNA: GGGAGUUCUACAGUCCGACGAUCAAAUACAUUUUCAUCGAAUUUACAAACACUGUGAUAUCAAACACAUUCUCAAAAAUGCGGAAGCACUGACACAAAACUUGACUCAAAGGUAAAAUUUCCAGUAGACAUUAUCUCUAACUUCAACAGAGGAUUGAGCAUCA
# B9: chr17:64801638:64801639:+_ENSG00000154229_ENST00000413366|hu_mus|hu_hu_hu_mus_False|28_28 (ssRNA)
# RNA: GGGAGUUCUACAGUCCGACGAUCUAUAUAUAUAUAUACAUAUGUACACAUAUAUAGUAAAACCCUAGUUAAACGUGUAAAGUAGCCAUUCAUUUUUAAAAUUACAUCUACAUUUAAAAAUUAAUAUAUCUGAUAGAGUGCCAGCAACAGAGGAUUGAGCAUCA
# B10: 93174519_93174639_65_5pUTR_ENSMUSG00000027217_ENSMUST00000111265|mouse|control|control (ssRNA)
# RNA: GGGAGUUCUACAGUCCGACGAUCGGGCUAGGCGUCAAAGCGACAAGGAGCGGCGACGCCCGCUGGGGGCCAGGGCCGGGCGGCCUGGCGUGGCUGGGCUUCGGAAUCGCACAGCGUUGCGUCCGCCUGCAGCUUGCAGCCCCUCAACAGAGGAUUGAGCAUCA
# B11: chr3:100432656:100432657:+_ENSG00000114354_ENST00000490574|hu_hu|motif|central (ssRNA)
# RNA: GGGAGUUCUACAGUCCGACGAUCUGUUACUUCAUCAUUACUCAGAAGUUUUCCUCUGAAAACUCGUUGCAUCAUUAGCACGGAUUCAUCAUAAGUAAUAUCUUCAUUAUGAAUAGGAAUUCGCCGAAUAUCCUCCCCAAGUUGCAACAGAGGAUUGAGCAUCA
# B12: chr1:220276048:220276049:+_ENSG00000067704_ENST00000302637|hu_hu|hu_hu_hu_mus_True|8_38 (ssRNA)
# RNA: GGGAGUUCUACAGUCCGACGAUCGCAAAUUGCCUGGUUGGCGGGAAUUGUCCAAGGCUGGGUGGUCCAAACUAAAACGCUAACAGGGGAUGAGGCAUCUAUAAGAGACUCCAACUUCGGAGGAGGUUUUAAGAGAGGGAAUCUCAACAGAGGAUUGAGCAUCA
# B13: 57917422_57918035_542_CDS_ENSMUSG00000003226_ENSMUST00000003310|mouse|control|control (ssRNA)
# RNA: GGGAGUUCUACAGUCCGACGAUCAAGUUCUGACUGAAUCAAGUCAAAAAGUUUAUUCCAUCCAUCUUCACCUUUACAAUCUAAAAGUUGUUCCUUUAACUUAUAAAUGGCAGGACUUCCUGGGAAAAGUUUGGCUGCUCUUUCCAACAGAGGAUUGAGCAUCA
# B14: 42481715_42481835_2119_CDS_ENSMUSG00000024491_ENSMUST00000091920|mouse|control|control (ssRNA)
# RNA: GGGAGUUCUACAGUCCGACGAUCGGGGGAAGACUGGGUUACCAUCACCUGCUGCGGAUGAAGAUGCUGUGGGAGGCUAUGGUGUUGCUGUGAAAGGUGACUCAGGGUGUGUUGCUGCUGCAGGAGAAUCUGUGCUGAGGACUGCAACAGAGGAUUGAGCAUCA
# B15: 46559684_46559804_1756_3pUTR_ENSG00000123200_ENST00000242848|human|control|control (ssRNA)
# RNA: GGGAGUUCUACAGUCCGACGAUCGGUAUCUCUGCUAUAAUCUCUCAUCUCCCUUGAGUCCCGCAUGUCUCUGGAGUCUCUUAGUUCCCUUCGGUCCCUAGUAUCUCUGGCAUCUCUCCGAUCCCGACCAUCUCGAGGUUCUCUCAACAGAGGAUUGAGCAUCA
# B16: chr14:34206250:34206251:-_ENSMUSG00000021936_ENSMUST00000111945|mus_hu|FALSE|FALSE (ssRNA)
# RNA: GGGAGUUCUACAGUCCGACGAUCUGCAGUCCUGGCCAGACCGAAGUCAAGAAUCUUCAAAGUGCAAUCAGAUUUUACUACUAUAUUACUGGGCUUUAAGUCCCGAUGAAUAAUUCCAGCAGAAUGAAGGUGCUUGAUUCCACACAACAGAGGAUUGAGCAUCA
# B17: chr7:91259230:91259231:-_ENSMUSG00000038459_ENSMUST00000117085|mus_mus|FALSE|FALSE (ssRNA)
# RNA: GGGAGUUCUACAGUCCGACGAUCCCCCUCAACCCACAGGGGCUCCACAGCACGGGGACAGCGCUCAUACAUCGCCAAGCCAUGGGAGAAAUCGAUGACCUCAUCCUCGGUACCGUGAAUGACCAACACAGGAGAGGUGACUUUCAACAGAGGAUUGAGCAUCA
# B18: chr1:163117127:163117128:-_ENSG00000143248_ENST00000313961|hu_mus|hu_hu_hu_mus_False|88_108 (ssRNA)
# RNA: GGGAGUUCUACAGUCCGACGAUCUGCGGGUUAUUAUGUAACUCAACACUCACAGGAACUUUUGGAAGCCUGACCAGAUGACUACUUGAUUAGCUCCUUAUAAAAUUCAGAGCGCACAAAGCGGGGCAGAGAAUCCUUCUCCAUCAACAGAGGAUUGAGCAUCA
# B19: chr7:140404665:140404666:+_ENSG00000090266_ENST00000247866|hu_hu|hu_hu_hu_mus_False|8_108 (ssRNA)
# RNA: GGGAGUUCUACAGUCCGACGAUCUGCGUACAGAGUGCCAGAGAGUUUACAGUGUCAGUCCUCGUCAUCAGGAGGGAUUCCCAGUUCUUCAUCUGUCCACUGUGAAGGAUCUGGAUAUGAAAAGUGACCCAGCACCUCAUCCGACAACAGAGGAUUGAGCAUCA
# B20: 131767450_131767570_510_ncRNA_ENSMUSG00000040025_ENSMUST00000102570|mouse|control|control (ssRNA)
# RNA: GGGAGUUCUACAGUCCGACGAUCCCGAGCAGGGAAGAAAGGAACCGGCCUGGGGGGGACGCGUGGUGAGGGGGAGGCGGGGACGAGCGCUAGGCCGGCGGGGCAGCCCCGGCAGCCCGGCCACCCGGCAGCCACACGAGGGAACAACAGAGGAUUGAGCAUCA
# B21: chr6:114281168:114281169:-_ENSG00000196591_ENST00000368632|hu_mus|motif|central (ssRNA)
# RNA: GGGAGUUCUACAGUCCGACGAUCUUCCAUUUUUCGGUAUAAACCAUAAUUUAGCAGCAAGUUAUGAGUCAUCCGGAUUCGGUGAGGCUUCAUGGGAUGACCCUGGCCAUAAUAAUAAUUGCCAAUAUCACCAUCAUAGUAGUACAACAGAGGAUUGAGCAUCA
# B22: chr11:93807532:93807533:+_ENSMUSG00000059474_ENSMUST00000107854|mus_mus|motif|central (ssRNA)
# RNA: GGGAGUUCUACAGUCCGACGAUCGUACACGUUGAACUGUGAAAGAGAACGGGCUACUGAGCUGUACGACGACAGGCAUUAUGGCGGCGAUGGAAGCCUCCUCUGGUUAACGGUCUGUGUUAGCAGCAGGAGCGAGGGUCUUAACAACAGAGGAUUGAGCAUCA
# Target: T1, UNK ZnF1-3
# Test: nsRBNS (natural sequence RNA bind-n-seq); RBNS binding buffer (assumed for nsRBNS): 25 mM Tris pH 7.5, 150 mM KCl, 3 mM MgCl2, 0.01% Triton X-100, 500 ug/ml BSA, 20 U/ml SUPERase-In, 4 C; UNK is unkempt and MSI1 is Musashi-1; names of the RNAs are library labels; protein concentration not given here; high values mean tight binding
row,Binder,binding signal
1,B1,1.05 enrichment R
2,B2,0.758 enrichment R
3,B3,1.06 enrichment R
4,B4,1.38 enrichment R
5,B5,0.827 enrichment R
6,B6,0.854 enrichment R
7,B7,1.42 enrichment R
8,B8,1.06 enrichment R
9,B9,1.73 enrichment R
10,B10,0.473 enrichment R
11,B11,0.432 enrichment R
12,B12,2.49 enrichment R
13,B13,0.962 enrichment R
14,B14,1.46 enrichment R
15,B15,0.707 enrichment R
16,B16,0.618 enrichment R
17,B17,1.38 enrichment R
18,B18,0.958 enrichment R
19,B19,1.32 enrichment R
20,B20,2.09 enrichment R
21,B21,0.739 enrichment R
22,B22,0.986 enrichment R
